From the supplement of paper PMC11417369
This is one part of the list.

The sequences below were run on PF3D7_0420300 AP2 domain 1 (GST-tagged) (assay: gcPBM binding intensity (ln(normalized median fluorescence intensity)); higher = stronger DNA binding).
Method in brief: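 An Agilent 4 × 180k array carrying primer-extended double-stranded 36-bp intergenic genomic probes and negative controls received GST-tagged P. falciparum DNA-binding domains expressed in E. coli, about 25 μg on average, for 1 h. The binding buffer contained 1× PBS, 1% milk, 0.2 mg/ml BSA, 0.5% salmon testes DNA and 0.03% Triton X-100. Binding intensity is the top Masliner-normalised natural-log median intensity across replicate spots of either probe orientation, read after Alexa488 anti-GST antibody staining and a 488 nm scan.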

Row | Sequence | gcPBM binding intensity (ln)
1 | TATTAATTTCACCTTTCACATATGGAAAAAAAAAAA [CACACA_negctrl_site1243] | 8.87
2 | ATTAAATCCGCACGCACACACACATATTAATAAAAA [CACACA_site3992] | 9.93
3 | TAAAAAAGAAAATATATACACACCAAAAAAAAAAAA [CACACA_site3146] | 9.66
4 | AAACAAAAAAATTGAAATAAAATGAAGTAAATGAAC [TGCATGCA_negctrl_site129] | 9.7
5 | ACATGTCTTAAAAGACGTACATATAAAAGAACCCTA [XGTACX_site8940] | 9.2
6 | AATATTAAAGAATAATGTACAAAATAAAAGCAAAGA [XGTACX_site3550] | 9.86
7 | TTATTTTTTAAAAGTAGTACAAATTTTTATAGAAAA [XGTACX_site7407] | 8.46
8 | ATTCCTTGGTTGTATAGTACTTTGGTTAAACATAAA [XGTACX_site6967] | 9.37
9 | CAATATTTGTTATGGGTGCAAACCGCATATATATAA [GTGCAC_site9543] | 9.08
10 | TGTATATATTATATTTGTACATATAAAACTATATGT [XGTACX_site4782] | 9.25
11 | TATCTCATAGTATACACACACACACGCGCACATATA [CACACA_site6917] | 10.3
12 | TTTCGAAAAACAACAAGAAAAAAAAAAAAAAAAAAA [XGTACX_negctrl_site449] | 8.34
13 | TTAAATATATGTAATACGCACACTTAATATTTTGAG [CACACA_site4170] | 9.24
14 | TTTTGGTGGGTTACAAGTACTCAAAATGGATTGTTA [XGTACX_site1951] | 9.18
15 | AAAAAAAAAAAAAAAACATGCAATAAAGTGTGCGTA [TGCATGCA_site982] | 9.46
16 | TCACATACATTACTTACACACCATATTGATATATAC [CACACA_site6353] | 9.7
17 | GTTCTGTAAATACGTGCACACACAAATCACAAATGT [CACACA_site7999] | 9.74
18 | AATTAAAAAAGTAATTAACACACAATAATGTAATGC [CACACA_site9388] | 9.71
19 | AAAGAAATGAAATATACACACATACATATATACATA [CACACA_site9335] | 9.81

Row | Sequence | gcPBM binding intensity (ln)
20 | GATATATTTTATATATGTACATACAATGGTAAATAT [XGTACX_site2759] | 9.27
21 | TTTTTTTTCTTTTTTTGTACATAATAATATATAAAT [XGTACX_site6778] | 9.12
22 | TATTCTTACAAAAGTAGTACAATCATTCATATTTTT [XGTACX_site631] | 9.01
23 | AAAAATGAAAAATGAAAAATGAAAAATGAAAAATAA [CACACA_negctrl_site695] | 9.48
24 | TATATATATATAATTGTGCACATAATTTTAAACCAA | 9.29
25 | TAGTTTCAAGTAGGACGTACATATAAAAGGATTTTT [XGTACX_site7136] | 9.33
26 | TATGTGTGAAAAAAATGTACATATATATAAATTATA [XGTACX_site7202] | 9.47
27 | ATATATATATATAATAGTACATATATTTTGAAAGAT [XGTACX_site5800] | 9.28
28 | AACTGTAAAAAATATAAACACACATAGAAATATATA [CACACA_site8002] | 9.81
29 | AATTTTCCATAGATTGTGCACAAATTTTTATTTTGT | 9.29
30 | TTATAATCAATGAATACACACATATATTTAATTAAT [CACACA_site3613] | 9.47
31 | AAGAAAAAGACTTCATGAAAAAGAATTTTTTTAATT [TGCATGCA_negctrl_site473] | 8.87
32 | TAATATTATTTTTCAGTGCAATATAACCTTAGAATT [GTGCAC_site9417] | 9.01
33 | ATATATTTTTTTTTTATTTTATTATTATAATTTATC [XGTACX_negctrl_site16] | 9.33
34 | AAACAAAACAACTAAGTGCATAAAAATAAAATAAAT | 9.69
35 | ATTTTATTTTTTTGAAGTACGAATTCCGAGAAGAAA [XGTACX_site43] | 8.77
36 | TATTCAAAAATATAAACAATGAAACAGTATAATATG [CACACA_negctrl_site1482] | 9.54
37 | TATAGTTCTTCTATTTGTACATATATTATTATTTAA [XGTACX_site895] | 9.26
38 | GGATATTATATAAAGTGTACAAGACAAATATATACA [XGTACX_site8173] | 9.42

Row | Sequence | gcPBM binding intensity (ln)
39 | ATATATCAAGGGAGTGAATGTTATGCATATGAATAT [TGCATGCA_negctrl_site573] | 9.35
40 | AATAAATTAAATAAAAATGTTTAACATAAAATATGA [GTGCAC_negctrl_site373] | 9.13
41 | AAATTAACAAACTGTAGTACTAACAATATATACAAA [XGTACX_site1772] | 9.45
42 | AAAAAAAAAAAACACACACACAAAATAAACAAACAA [CACACA_site2721] | 10.3
43 | ATTATAATTATCAAGGTGCGTGTATTATAATAAATA [GTGCAC_site9917] | 9.3
44 | TAATATAATAATAATTGTACTTTTCATAGTGTAATT [XGTACX_site8152] | 9.07
45 | TCTTTTATATTGTAGAGTACATATTTTCAATATATA [XGTACX_site5586] | 9.04
46 | TTCTTTTATAAAAGTAGTACAATTATATTGTAATTA [XGTACX_site2855] | 8.89
47 | AAATTGTCAAAACACGCACACACATATACATAATAA [CACACA_site1743] | 9.86
48 | GTGATACGCTATAGGACACACGCTTAATAATTATAA [CACACA_site1694] | 9.1
49 | ATCATAAATTATTATACACACAATACGTGACCTATT [CACACA_site1906] | 9.71
50 | TTTTAAGGTGTGAAGGTGCAAAAAGGTAAATAGGAA | 9.62
51 | TAAACAGAAGCACATACACACACTCAAAAAAAAAAA [CACACA_site3051] | 9.83
52 | CACAAACACCCAAACACACACACACCGACATACATA [CACACA_site4410] | 10
53 | AAAATACATAAACACACACACACACCGATATATATA [CACACA_site9186] | 10.3
54 | AAAAAAAAAAAAGGCACACAAACATATGTAGACATA [CACACA_site2284] | 9.67
55 | TCGTGTGTAATATTATATATATATATATAATATATA [TGCATGCA_negctrl_site289] | 9.37
56 | TATTTTACACATTTACGTACATAAATATATATATAT [XGTACX_site8788] | 9.49
57 | TACGCACAAAAATATACACACACACCGATATATTTA [CACACA_site9213] | 9.89
